Data from PubChem BioAssay AID504332 (National Center for Advancing Translational Sciences (NCATS), 2011).
The campaign covered roughly 350,000 compounds. About 31,000 (8.9%) were called active. The inconclusive results got no clear call from the source; some entries with a clear call stand among them for comparison. The call rests on the fitted dose curve; in most records, active means well fitted inhibition curve with a large enough effect; inconclusive means small, poorly fitted or top-dose-only effect; inactive means no such curve, though single readings can be large or run the other way. A potency beside an inconclusive call is a rough fit, not a confirmed value.

The compounds below were run against Histone-lysine N-methyltransferase EHMT2 (Homo sapiens) (UniProt Q96KQ7) (assay: qHTS Assay for Inhibitors of Histone Lysine Methyltransferase G9a). Details: G9a H3K9 monomethylation, AlphaScreen, 2 h; activity, negative = inhibition: at 59 µM (top of the series) unless noted.
Sequence of UniProt Q96KQ7 (Q96KQ7 whole entry, looked up): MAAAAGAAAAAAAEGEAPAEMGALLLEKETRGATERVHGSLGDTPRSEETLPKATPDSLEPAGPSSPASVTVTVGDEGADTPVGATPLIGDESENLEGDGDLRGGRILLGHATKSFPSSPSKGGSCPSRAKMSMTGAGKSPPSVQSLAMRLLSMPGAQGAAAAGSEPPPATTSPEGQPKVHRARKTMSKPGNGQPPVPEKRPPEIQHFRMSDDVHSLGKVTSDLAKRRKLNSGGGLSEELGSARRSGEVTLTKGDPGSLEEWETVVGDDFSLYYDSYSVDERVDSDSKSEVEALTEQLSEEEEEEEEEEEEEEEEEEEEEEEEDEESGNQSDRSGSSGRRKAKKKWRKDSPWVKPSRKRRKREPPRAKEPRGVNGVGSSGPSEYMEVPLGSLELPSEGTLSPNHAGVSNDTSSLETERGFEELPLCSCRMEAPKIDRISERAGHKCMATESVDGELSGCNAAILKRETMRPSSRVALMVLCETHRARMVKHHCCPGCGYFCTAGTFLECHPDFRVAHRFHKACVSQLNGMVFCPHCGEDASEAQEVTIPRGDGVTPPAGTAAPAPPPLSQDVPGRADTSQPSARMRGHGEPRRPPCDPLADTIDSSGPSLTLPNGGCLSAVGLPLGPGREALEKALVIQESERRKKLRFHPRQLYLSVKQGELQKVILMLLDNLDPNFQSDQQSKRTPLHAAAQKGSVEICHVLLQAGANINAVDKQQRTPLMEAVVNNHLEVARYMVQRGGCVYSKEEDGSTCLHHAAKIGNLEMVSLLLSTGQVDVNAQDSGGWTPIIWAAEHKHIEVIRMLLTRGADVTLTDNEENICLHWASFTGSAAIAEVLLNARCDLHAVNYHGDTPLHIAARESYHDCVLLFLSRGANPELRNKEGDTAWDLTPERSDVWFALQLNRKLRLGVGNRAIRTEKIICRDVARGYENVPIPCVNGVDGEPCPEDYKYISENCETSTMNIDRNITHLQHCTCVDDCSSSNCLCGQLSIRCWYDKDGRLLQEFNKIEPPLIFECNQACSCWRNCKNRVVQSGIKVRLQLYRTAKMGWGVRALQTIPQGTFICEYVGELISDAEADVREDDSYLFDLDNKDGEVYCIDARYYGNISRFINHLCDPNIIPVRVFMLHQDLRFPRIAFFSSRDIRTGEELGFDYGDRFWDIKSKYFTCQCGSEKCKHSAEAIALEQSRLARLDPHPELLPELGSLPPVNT
Procedure, shortened: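 G9a (20 nM) was preincubated 15 min with compound, then reacted 2 h at room temperature with 500 nM biotin-H3K9 peptide and 20 µM SAM. Monomethyl-H3K9 detected by AlphaScreen using anti-H3K9me1 antibody.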
Further: nearly all actives have a fitted effect of over 75% in size.
On the % scale 0 is the no-effect control and ±100 the full control effect; potency means the concentration at half of the fitted maximal effect; tags describe the fitted curve by direction and shape.

Structure (SMILES)	Potency	activity, negative = inhibition
COC(=O)c1cc(C#N)c(N2CCN(C)CC2)nc1C	inconclusive: 79.4 µM [inhibitor, partial curve, poor fit]	–
CS(=O)(=O)N1N=C(c2ccc3nccnc3c2)CC1c1ccccc1 (stereo not drawn)	inconclusive: 1.78 µM [inhibitor, full curve, poor fit]	–
Cc1cccc(Nc2nc(NCc3ccco3)nc(N3CCOCC3)n2)c1	–	inconclusive: -79.8% [inhibitor]
C[N+]1(CCOc2ccc([N+](=O)[O-])cc2)CCOCC1	inconclusive: 28.2 µM [inhibitor, partial curve, poor fit]	–
CC(Oc1ccc(F)cc1Br)c1nc2ccccc2c(=O)[nH]1 (stereo not drawn)	–	inactive: 22.4% [at 102 µM]
COc1ccc(C(C(=O)Nc2ccc(C(C)C)cc2)N(C)C(=O)Cc2cccs2)cc1 (stereo not drawn)	–	inactive: 12.8%
CC(C)CC(=O)N1CCN(S(=O)(=O)c2ccccc2)CC1	–	inactive: -18.9%
O=C(COC(=O)c1ccc(Sc2ccccc2)c([N+](=O)[O-])c1)NC1CCCc2ccccc21 (stereo not drawn)	inconclusive: 25.1 µM [inhibitor, partial curve, poor fit]	–
S=C(Nc1ccc(Oc2ccccc2)cc1)Nc1cccnc1	–	inactive: 1.29% [at 0.501 µM]
Cc1ccc(NC(=O)CC2Oc3ccccc3NC2=O)c(C)c1 (stereo not drawn)	inconclusive: 89.1 µM [inhibitor, single point]	–
COc1ccc(C(=O)NCC(c2cccnc2)N2CCN(c3ccccc3OC)CC2)cc1 (stereo not drawn)	inconclusive: 7.94 µM [inhibitor, partial curve, poor fit]	–
CN(C)c1ccc(-c2nc3ccccc3n2C)cc1	–	inconclusive: -111% [inhibitor]
CN(C)c1ccc(N=Nc2ccccc2C(=O)OCC(=O)N(C)C2CCCCC2)cc1	active: 20 µM	–
CCCN(CCO)Cc1cccc(Cl)c1	inconclusive: 4.47 µM [inhibitor, partial curve, poor fit]	–
COc1ccc2cc3cc(C(=O)N4CCCCC4C)oc3nc2c1 (stereo not drawn)	–	inactive: 13.6% [at 102 µM]
Cc1ccc(S(=O)(=O)N2CCC(C(=O)N[C@H](C(=O)N3CCN(C)CC3)C(C)C)CC2)cc1	inconclusive: 79.4 µM [inhibitor, partial curve, poor fit]	–
O=C(CSc1nc2ccccc2[nH]1)Nc1ccc2[nH]c(=O)[nH]c2c1	inconclusive: 3.98 µM [inhibitor, partial curve, poor fit]	–
C#CCOCCOCCOCCNc1nc(N2CCN(C(=O)Cn3cc(CCCN=C(N)N)nn3)CC2)nc(N2CCN(C(=O)[C@H](C(C)C)n3cc(CCO)nn3)CC2)n1	active: 50.1 µM	–
O=C(CN1CCN(c2ccccn2)CC1)Nc1ccc(Oc2ccccc2)cc1	inconclusive: 79.4 µM [inhibitor, single point]	–
O=C(/C=C/c1ccco1)Nc1ccccc1C(=O)O	active: 14.1 µM	–
CCc1ccc(C(=O)c2cn(CC(=O)Nc3ccc4c(c3)OCCO4)c3ccc(CC)cc3c2=O)cc1	–	inactive: -0.609%
C=CCOC(=O)C(=O)/C=C/c1csc2ccccc12	–	inconclusive: -69.5% [inhibitor]

Structure (SMILES)	Potency	activity, negative = inhibition
O=C(Cc1cccs1)Nc1nnc(CCc2ccccc2)s1	–	inactive: -7.66% [at 12.7 µM]
CN1C2=CC=CC=CC2=[N+](C)C12C([N+](=O)[O-])=CC(=[N+]([O-])[O-])C=C2[N+](=O)[O-] (stereo not drawn)	inconclusive: 56.2 µM [inhibitor, partial curve, poor fit]	–
CCC(=O)Nc1ccc(-c2nnc(SCC(=O)Nc3nccs3)n2C)cc1	active: 39.8 µM	–
COc1ccc(Nc2cc(C(=O)NCCCN3CCN(C)CC3)c3ccccc3n2)cc1OC	active: 3.55 µM	–
COc1ccc(-c2nc3ncccc3n2O)cc1	–	inactive: 4.85% [at 102 µM]
COc1ccc(NC(=S)NC(NC(=O)c2cccc(Cl)c2)C(Cl)(Cl)Cl)c([N+](=O)[O-])c1 (stereo not drawn)	inconclusive: 15.8 µM [inhibitor, partial curve, poor fit]	–
CC(=O)N1CCN(c2nc3c(F)cc(F)cc3s2)CC1	–	inactive: -16%
COc1ccc(-c2csc(NC(=O)C3CCCCN3S(=O)(=O)c3ccccc3)n2)cc1 (stereo not drawn)	–	inactive: 8.73%
O=C1N(Cc2cccnc2)C[C@@H]2C[C@@H](c3cccc(C(F)(F)F)c3)N3CCC[C@@]123	inconclusive: 79.4 µM [inhibitor, partial curve, poor fit]	–
CC(=O)c1ccc(NC(=O)C2CCC(C)(C(=O)O)C2(C)C)cc1 (stereo not drawn)	inconclusive: 1 µM [inhibitor, partial curve, poor fit]	–
Cc1cccc(NC(=O)CCN2C(=O)c3cccc([N+](=O)[O-])c3C2=O)c1	inconclusive: 89.1 µM [inhibitor, single point]	–
Cc1cnc(C(=O)N(CC(C)C)c2c(N)n(CC(C)C)c(=O)[nH]c2=O)cn1	inconclusive: 100 µM [inhibitor, single point]	–
CCOC(=O)N1CCN(S(=O)(=O)c2ccc(C(=O)N(CCCN(C)C)c3nc4ccc(CC)cc4s3)cc2)CC1	inconclusive: 79.4 µM [inhibitor, single point]	–
CCNc1ncc2nc(-c3cccs3)c(=O)n(Cc3cccc(OC)c3)c2n1	–	inactive: -6.58% [at 0.501 µM]
Cc1cccc(N2CCN(C(=O)c3cc4c(=O)[nH]c5ccc(C)cc5c4s3)CC2C)c1 (stereo not drawn)	inconclusive: 1.41 µM [inhibitor, partial curve, poor fit]	–
CCN1C(=O)/C(=C/N2CCc3ccccc32)SC1=S	–	inactive: 1.24% [at 12.7 µM]
CCCc1nc2ccccc2c(C(=O)OC2CCOC2=O)c1CC (stereo not drawn)	inconclusive: 70.8 µM [inhibitor, single point]	–
COc1ccc(C2c3c(oc4cc(C)cc(C)c4c3=O)C(=O)N2Cc2ccco2)cc1OC (stereo not drawn)	–	inactive: 0.608%
CC(=O)Nc1nnc(-c2c(-c3c(Cl)cccc3Cl)noc2C)o1	–	inactive: -6.39% [at 102 µM]
Cc1cc(C)cc(NC(=O)CSc2nnc(Cc3cccn3C)n2-c2ccc(F)cc2)c1	inconclusive: 35.5 µM [inhibitor, single point]	–
O=C(NC(=S)NCc1cccnc1)c1ccccc1F	inconclusive: 3.55 µM [inhibitor, single point]	–
